Reference: the supplement of paper PMC8728848
Some of the results follow.

How the values were obtained:
Experiment in all cases: glycan array binding signal (z-score within array); higher = stronger binding
Conditions in all cases: glycan notation: IUPAC condensed, linker removed
[1] = target: Gal(b1-3)GlcNAc(b1-6)[Gal(b1-3)]GalNAc
How it was run: (§1)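 From the Consortium for Functional Glycomics database, 3228 arrays were curated, keeping only those whose protein sequence was available. Binding is given as a within-array Z-score averaged across arrays sharing a protein sequence and across linkers. Negative Z-scores can be read as non-binding.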

Gal(b1-3)GlcNAc6S = target: Gal(b1-3)GlcNAc6S
How it was run: as §1

[2] = target: Gal(b1-3)[Fuc(a1-4)]GlcNAc
How it was run: as §1

[3] = target: Gal(b1-3)[Fuc(a1-4)]GlcNAc(b1-2)Man
How it was run: as §1

[4] = target: Gal(b1-3)[Fuc(a1-4)]GlcNAc(b1-2)Man(a1-3)[Gal(b1-3)[Fuc(a1-4)]GlcNAc(b1-2)Man(a1-6)]Man(b1-4)GlcNAc(b1-4)[Fuc(a1-6)]GlcNAc
How it was run: as §1

[5] = target: Gal(b1-3)[Fuc(a1-4)]GlcNAc(b1-3)Gal(b1-3)[Fuc(a1-4)]GlcNAc
How it was run: as §1

[6] = target: Gal(b1-3)[Fuc(a1-4)]GlcNAc(b1-3)Gal(b1-4)[Fuc(a1-3)]GlcNAc
How it was run: as §1

[7] = target: Gal(b1-3)[Fuc(a1-4)]GlcNAc(b1-6)GalNAc
How it was run: as §1

[8] = target: Gal(b1-3)[GlcNAc(b1-6)]GalNAc
How it was run: as §1

[9] = target: Gal(b1-3)[Neu5Ac(a2-6)]GalNAc
How it was run: as §1

[10] = target: Gal(b1-3)[Neu5Ac(a2-6)]GlcNAc(b1-4)Gal(b1-4)Glc
How it was run: as §1

[11] = target: Gal(b1-3)[Neu5Ac(b2-6)]GalNAc
How it was run: as §1

Gal(b1-4)Gal = target: Gal(b1-4)Gal
How it was run: as §1

[12] = target: Gal(b1-4)GalNAc(a1-3)[Fuc(a1-2)]Gal(b1-4)GlcNAc
How it was run: as §1

[13] = target: Gal(b1-4)GalNAc(b1-3)[Fuc(a1-2)]Gal(b1-4)GlcNAc
How it was run: as §1

Gal(b1-4)Glc = target: Gal(b1-4)Glc
How it was run: as §1

Gal(b1-4)Glc6S = target: Gal(b1-4)Glc6S
How it was run: as §1

Gal(b1-4)GlcNAc = target: Gal(b1-4)GlcNAc
How it was run: as §1

[14] = target: Gal(b1-4)GlcNAc(a1-6)Gal(b1-4)GlcNAc
How it was run: as §1

Gal(b1-4)GlcNAc(b1-2)Man = target: Gal(b1-4)GlcNAc(b1-2)Man
How it was run: as §1

[15] = target: Gal(b1-4)GlcNAc(b1-2)Man(a1-3)Man(b1-4)GlcNAc(b1-4)GlcNAc
How it was run: as §1

[16] = target: Gal(b1-4)GlcNAc(b1-2)Man(a1-3)[Gal(b1-4)GlcNAc(b1-2)Man(a1-6)]Man(b1-4)GlcNAc(b1-4)GlcNAc
How it was run: as §1

[17] = target: Gal(b1-4)GlcNAc(b1-2)Man(a1-3)[Gal(b1-4)GlcNAc(b1-2)Man(a1-6)]Man(b1-4)GlcNAc(b1-4)[Fuc(a1-6)]GlcNAc
How it was run: as §1

[18] = target: Gal(b1-4)GlcNAc(b1-2)Man(a1-3)[Gal(b1-4)GlcNAc(b1-2)Man(a1-6)][Gal(b1-4)GlcNAc(b1-4)]Man(b1-4)GlcNAc(b1-4)[Fuc(a1-6)]GlcNAc
How it was run: as §1

[19] = target: Gal(b1-4)GlcNAc(b1-2)Man(a1-3)[Gal(b1-4)GlcNAc(b1-2)Man(a1-6)][GlcNAc(b1-4)]Man(b1-4)GlcNAc(b1-4)[Fuc(a1-6)]GlcNAc
How it was run: as §1

[20] = target: Gal(b1-4)GlcNAc(b1-2)Man(a1-3)[GlcNAc(b1-2)Man(a1-6)]Man(b1-4)GlcNAc(b1-4)GlcNAc
How it was run: as §1

[21] = target: Gal(b1-4)GlcNAc(b1-2)Man(a1-3)[GlcNAc(b1-4)][Gal(b1-4)GlcNAc(b1-2)Man(a1-6)]Man(b1-4)GlcNAc(b1-4)GlcNAc
How it was run: as §1

[22] = target: Gal(b1-4)GlcNAc(b1-2)Man(a1-3)[Man(a1-6)]Man(b1-4)GlcNAc(b1-4)GlcNAc
How it was run: as §1

[23] = target: Gal(b1-4)GlcNAc(b1-2)Man(a1-6)Man(b1-4)GlcNAc(b1-4)GlcNAc
How it was run: as §1

[24] = target: Gal(b1-4)GlcNAc(b1-2)Man(a1-6)[GlcNAc(b1-2)Man(a1-3)]Man(b1-4)GlcNAc(b1-4)GlcNAc
How it was run: as §1

[25] = target: Gal(b1-4)GlcNAc(b1-2)Man(a1-6)[Man(a1-3)]Man(b1-4)GlcNAc(b1-4)GlcNAc
How it was run: as §1

[26] = target: Gal(b1-4)GlcNAc(b1-2)[Gal(b1-4)GlcNAc(b1-4)]Man(a1-3)[Gal(b1-4)GlcNAc(b1-2)Man(a1-6)]Man(b1-4)GlcNAc(b1-4)GlcNAc
How it was run: as §1

[27] = target: Gal(b1-4)GlcNAc(b1-2)[Gal(b1-4)GlcNAc(b1-4)]Man(a1-3)[Gal(b1-4)GlcNAc(b1-2)[Gal(b1-4)GlcNAc(b1-6)]Man(a1-6)]Man(b1-4)GlcNAc(b1-4)GlcNAc
How it was run: as §1

[28] = target: Gal(b1-4)GlcNAc(b1-2)[Gal(b1-4)GlcNAc(b1-4)]Man(a1-3)[GlcNAc(b1-4)][Gal(b1-4)GlcNAc(b1-2)Man(a1-6)]Man(b1-4)GlcNAc(b1-4)GlcNAc
How it was run: as §1

[29] = target: Gal(b1-4)GlcNAc(b1-2)[Gal(b1-4)GlcNAc(b1-4)]Man(a1-3)[GlcNAc(b1-4)][Gal(b1-4)GlcNAc(b1-2)[Gal(b1-4)GlcNAc(b1-6)]Man(a1-6)]Man(b1-4)GlcNAc(b1-4)GlcNAc
How it was run: as §1

[30] = target: Gal(b1-4)GlcNAc(b1-2)[Gal(b1-4)GlcNAc(b1-6)]Man(a1-6)[Gal(b1-4)GlcNAc(b1-2)Man(a1-3)]Man(b1-4)GlcNAc(b1-4)GlcNAc
How it was run: as §1

[31] = target: Gal(b1-4)GlcNAc(b1-2)[Gal(b1-4)GlcNAc(b1-6)]Man(a1-6)[Gal(b1-4)GlcNAc(b1-2)Man(a1-3)]Man(b1-4)GlcNAc(b1-4)[Fuc(a1-6)]GlcNAc
How it was run: as §1

[32] = target: Gal(b1-4)GlcNAc(b1-2)[Gal(b1-4)GlcNAc(b1-6)]Man(a1-6)[GlcNAc(b1-4)][Gal(b1-4)GlcNAc(b1-2)Man(a1-3)]Man(b1-4)GlcNAc(b1-4)GlcNAc
How it was run: as §1

[33] = target: Gal(b1-4)GlcNAc(b1-2)[Gal(b1-4)GlcNAc(b1-6)]Man(a1-6)[GlcNAc(b1-4)][Gal(b1-4)GlcNAc(b1-2)[Gal(b1-4)GlcNAc(b1-4)]Man(a1-3)]Man(b1-4)GlcNAc(b1-4)[Fuc(a1-6)]GlcNAc
How it was run: as §1

[34] = target: Gal(b1-4)GlcNAc(b1-3)Gal(b1-3)GalNAc
How it was run: as §1

[35] = target: Gal(b1-4)GlcNAc(b1-3)Gal(b1-3)GlcNAc
How it was run: as §1

[36] = target: Gal(b1-4)GlcNAc(b1-3)Gal(b1-4)Glc
How it was run: as §1

[37] = target: Gal(b1-4)GlcNAc(b1-3)Gal(b1-4)GlcNAc
How it was run: as §1

[38] = target: Gal(b1-4)GlcNAc(b1-3)Gal(b1-4)GlcNAc(b1-2)Man(a1-3)[Gal(b1-4)GlcNAc(b1-3)Gal(b1-4)GlcNAc(b1-2)Man(a1-6)]Man(b1-4)GlcNAc(b1-4)GlcNAc
How it was run: as §1

[39] = target: Gal(b1-4)GlcNAc(b1-3)Gal(b1-4)GlcNAc(b1-2)Man(a1-3)[Gal(b1-4)GlcNAc(b1-3)Gal(b1-4)GlcNAc(b1-2)Man(a1-6)]Man(b1-4)GlcNAc(b1-4)[Fuc(a1-6)]GlcNAc
How it was run: as §1

B1: LecB PA14 (Pseudomonas aeruginosa) (protein)
chain: MATQGVFTLPANTQFGVTAFANSAGTQTVNVQVNNETVATFTGQSTNNAIIGSKVLNSGGGGKVQILVSVNGRSSDLVSAQVILANELNFALVGSEDSTDNDYNDAVVVINWPLG
[1]
  glycan array binding signal (z-score): -0.632
Gal(b1-3)GlcNAc6S
  glycan array binding signal (z-score): -0.67
[2]
  glycan array binding signal (z-score): 0.551
[3]
  glycan array binding signal (z-score): 0.531
[4]
  glycan array binding signal (z-score): -0.16
[5]
  glycan array binding signal (z-score): 1.4
[6]
  glycan array binding signal (z-score): 0.012
[7]
  glycan array binding signal (z-score): 1.1
[8]
  glycan array binding signal (z-score): -0.021
[9]
  glycan array binding signal (z-score): -0.431
[10]
  glycan array binding signal (z-score): -0.183
[11]
  glycan array binding signal (z-score): -0.435
Gal(b1-4)Gal
  glycan array binding signal (z-score): 0.891
[12]
  glycan array binding signal (z-score): 0.342
[13]
  glycan array binding signal (z-score): -0.285
Gal(b1-4)Glc
  glycan array binding signal (z-score): -0.334
Gal(b1-4)Glc6S
  glycan array binding signal (z-score): 0.179
Gal(b1-4)GlcNAc
  glycan array binding signal (z-score): -0.238
[14]
  glycan array binding signal (z-score): -0.201
Gal(b1-4)GlcNAc(b1-2)Man
  glycan array binding signal (z-score): -0.837
[15]
  glycan array binding signal (z-score): 0.02
[16]
  glycan array binding signal (z-score): -0.479
[17]
  glycan array binding signal (z-score): -0.349
[18]
  glycan array binding signal (z-score): 0.6
[19]
  glycan array binding signal (z-score): 0.268
[20]
  glycan array binding signal (z-score): 0.016
[21]
  glycan array binding signal (z-score): -0.531
[22]
  glycan array binding signal (z-score): -0.394
[23]
  glycan array binding signal (z-score): -0.087
[24]
  glycan array binding signal (z-score): -0.579
[25]
  glycan array binding signal (z-score): 0.002
[26]
  glycan array binding signal (z-score): 0.089
[27]
  glycan array binding signal (z-score): 0.244
[28]
  glycan array binding signal (z-score): -0.781
[29]
  glycan array binding signal (z-score): -0.481
[30]
  glycan array binding signal (z-score): -0.657
[31]
  glycan array binding signal (z-score): -0.411
[32]
  glycan array binding signal (z-score): -0.61
[33]
  glycan array binding signal (z-score): -0.293
[34]
  glycan array binding signal (z-score): -0.179
[35]
  glycan array binding signal (z-score): -0.586
[36]
  glycan array binding signal (z-score): -0.622
[37]
  glycan array binding signal (z-score): -0.465
[38]
  glycan array binding signal (z-score): -0.233
[39]
  glycan array binding signal (z-score): 0.599
